Among all 390,000 compounds or so, about 930 (0.24%) were called active. Inconclusive results, whose numbers are uncertain, are shown with a selection of clear calls. Calls come from the whole dose curve; as a rule, active = well fitted activation curve with a large enough effect; inconclusive = small, poorly fitted or top-dose-only effect; inactive = no such curve, though single readings can be large or run the other way. Where the call is inconclusive, the potency comes from a doubtful curve fit.
Assay: qHTS for Suppressors of FUS Proteinopathy: Primary screen using FUS-linked yeast assay; note: nearly all actives have a fitted effect of over 55% in size;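 for growth rescue (activation): plate controls were DMSO vehicle for no effect and reference control for full effect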
Conditions: S. cerevisiae FUS-expressing, OD600, 24 h; Potency: growth rescue; growth rescue (activation): at 76.6 µM (top of the series)
Summary of the method: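 Read-out: OD at 600 nm after 24hr at 30C, reporting rescue of FUS-induced yeast toxicity. Cells at OD 0.005 in galactose (2%) minimal medium; compounds tested in a dilution series; CP55940 titration from 92uM final as control.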
Potency is the fitted concentration of half-maximal effect; tags give direction and shape of the fitted curve.

Row | Structure (SMILES) | growth rescue (activation) | Potency
1 | Cc1cc(C)cc(NC(=O)N2CCN(Cc3nc4ccccc4c(=O)[nH]3)CC2)c1 | inactive: 4.95% | –
2 | O=[N+]([O-])c1cccc(S(=O)(=O)Nc2cccc(-c3ccc(N4CCOCC4)nn3)c2)c1 | – | inconclusive: 28.2 µM [activator, partial curve]
3 | Cc1cccnc1C1=NOC(Cc2ccccc2)C(=O)N1Cc1ccc2c(c1)OCO2 (configuration not stated) | – | inconclusive: 50.1 µM [activator, single point]
4 | CCn1cc2nc(SCc3cc(C)ccc3C)n(Cc3ccc(C)cc3)c(=O)c2n1 | inactive: -8% | –
5 | COc1ccccc1N1CCN(C(=O)CCSCc2ccccc2F)CC1 | – | inactive
6 | COc1ccc(Nc2oc(/C=C/c3ccc(F)cc3)nc2C#N)cc1 | – | inconclusive: 39.8 µM [activator, partial curve, poor fit]
7 | Cc1ccc(C2c3cccn3CCN2S(=O)(=O)c2ccc([N+](=O)[O-])cc2)cc1 (configuration not stated) | – | inconclusive: 39.8 µM [activator, single point]
8 | CCOC(=O)N1CCN(c2ncnc3c2cnn3-c2ccc(OC)cc2)CC1 | – | inconclusive: 11.2 µM [activator, single point]
9 | COCCCn1c(=N)c(S(=O)(=O)c2ccccc2)cc2c(=O)n3cccc(C)c3nc21 | inactive: 11.7% | –
10 | CCN(CC)S(=O)(=O)c1cc([N+](=O)[O-])ccc1NNC(=O)Nc1ccccc1 | – | inconclusive: 50.1 µM [activator, single point]
11 | O=C1N=C(N2CCN(c3ccccc3)CC2)S/C1=C/c1ccco1 | – | inconclusive: 50.1 µM [activator, single point]
12 | Clc1ccc2[nH]cc(-c3nnnn3-c3ccc4ccccc4c3)c2c1 | – | inconclusive: 50.1 µM [activator, single point]
13 | Cc1ccc(NC(=O)c2nnn(CC(=O)Nc3ccccc3)c2N)cc1C | – | inconclusive: 35.5 µM [activator, partial curve, poor fit]
14 | CCOC(=O)CSc1nnc(CCCCCN2C(=O)c3cccc4cccc(c34)C2=O)o1 | inactive: 9.27% | –
15 | Cc1ccc(C(=O)c2cn(Cc3ccc(F)cc3)c3nc(C)ccc3c2=O)cc1 | inactive: 38.1% | –
16 | O=C(Nc1ccccc1)c1ccc(NCc2ccco2)c(S(=O)(=O)N2CCOCC2)c1 | – | inconclusive: 39.8 µM [activator, single point]
17 | COC(=O)c1ccc(CSc2nc3c([nH]c4ccccc43)c(=O)n2-c2cccc(OC)c2)o1 | inactive: 43% | –
18 | CCCCCCC/C=C(\C)[C@@H](O)[C@@H](C)C(=O)N1CCC[C@@H]1C(=O)O[C@H](C(=O)O[C@@H](C)C(=O)O)[C@@H](C)CC | – | inconclusive: 22.4 µM [activator, partial curve, poor fit]
19 | CC(=O)Nc1ccc(S(=O)(=O)N2CCN(c3cc(C)ccc3C)CC2)cc1 | – | inconclusive: 28.2 µM [activator, single point]
20 | COc1ccccc1CNC(=O)COc1cc2c(c3oc(=O)cc(C)c13)CCC(C)(C)O2 | – | inconclusive: 28.2 µM [activator, partial curve]
21 | c1cc(Nc2ncnc3sccc23)cc(-c2nnc3n2CCCCC3)c1 | – | inconclusive: 15.8 µM [activator, partial curve, poor fit]

Row | Structure (SMILES) | growth rescue (activation) | Potency
22 | C#Cc1ccc([C@H]2C=C(C(=O)NCc3nc4ccccc4[nH]3)O[C@@H](OCC)[C@@H]2CCCO)cc1 | – | inconclusive: 31.6 µM [activator, single point]
23 | COC(=O)[C@]12C[C@H](CC(=O)NCCCN3CCCC3=O)C(=O)N(Cc3cccc4ccccc34)C1=C[C@H](COCc1ccccc1)O[C@@H]2C | – | inconclusive: 14.1 µM [activator, partial curve]
24 | O=C(NC1CCCC1)C1C(c2ccc(C(F)(F)F)cc2)=Nc2ccccc2N1C(=O)c1cc2ccccc2[nH]1 (configuration not stated) | – | inconclusive: 25.1 µM [activator, single point]
25 | Cc1ccc(-n2c(=O)[nH]c3c(oc4ccccc43)c2=O)cc1 | inactive: 0.553% | –
26 | CC(C)=CCc1c([C@@H]2CCc3ccc(O)cc3O2)cc2c(c1O)OC(C)(C)C=C2 | – | inconclusive: 39.8 µM [activator, single point]
27 | O=C(Cn1c(=O)oc2ccccc21)NCc1ccccc1Cl | inactive: -0.359% | –
28 | CCc1ccc([C@H]2[C@@H]3C(=O)C[C@@H]4C(=O)N(Cc5ccccc5)C(=O)[C@@H]4[C@@H]3CN2S(=O)(=O)c2ccc(C)cc2)cc1 | – | inconclusive: 8.91 µM [activator, full curve]
29 | Fc1ccc(-c2ccnc3nc(N4CCN(c5ccccc5)CC4)nn23)cc1 | inactive: -11.5% | –
30 | COC(=O)[C@@]12C[C@@H](CC(=O)NCc3cccc4ccccc34)C(=O)N(Cc3ccc4c(c3)OCO4)C1=CCC(C)(C)C2 | – | active: 6.31 µM
31 | COc1cccc(N(C)C(=O)[C@@H](C2CC2)[C@@H](O)c2ccc(C(C)=O)cc2)c1 | inactive: 3.49% | –
32 | O=C(CSCc1nc2cccnc2n1C1CCCCC1)NCc1cccc(Br)c1 | – | inconclusive: 44.7 µM [activator, single point]
33 | NC(=O)c1sc2nc(N3CCOCC3)c3c(c2c1N)CCCC3 | – | inconclusive: 28.2 µM [activator, single point]
34 | CCOc1ccc(CCNC(=O)c2ccc3[nH]c(C)c(C)c3c2)cc1 | – | inconclusive: 31.6 µM [activator, single point]
35 | N/C(=N\c1nc2c(c(=O)[nH]1)CCC2)Nc1cccc(Cl)c1 | – | inconclusive: 10 µM [activator, single point]
36 | COc1cccc(C(=O)N=c2sc3cc(S(C)(=O)=O)ccc3n2C)c1 | inactive: 11.7% | –
37 | O=C(c1ccc2c(c1)N(Cc1ccccc1F)C(=O)c1ccccc1S2(=O)=O)N1CCCCCC1 | – | inconclusive: 12.6 µM [activator, partial curve, poor fit]
38 | Cc1cc(NC(=O)Nc2cccc(C(F)(F)F)c2)no1 | inconclusive: 47.1% [activator] | –
39 | COc1ccc(S(=O)(=O)Nc2cc(C(=O)NC3CCCCCC3)ccc2N2CCOCC2)cc1 | – | inconclusive: 35.5 µM [activator, partial curve, poor fit]
40 | O=[N+]([O-])c1cccc(-n2cccc2/C=N/Nc2nc(N3CCCCC3)nc(N3CCCCC3)n2)c1 | – | inconclusive: 7.08 µM [activator, partial curve, poor fit]
41 | Cc1ccc(NC(=O)Cn2c(=O)n(Cc3nc(-c4ccccc4)no3)c(=O)c3cc4c(cc32)OCO4)cc1C | inactive: -17.7% | –
42 | COc1ccccc1N1CCN(C(c2ccccc2)c2nnc(-c3ccccc3Cl)o2)CC1 (configuration not stated) | – | inconclusive: 22.4 µM [activator, single point]

Row | Structure (SMILES) | growth rescue (activation) | Potency
43 | NC(=Nc1ccc(Cl)cc1)c1ccccc1 | inactive: -32.5% | –
44 | O=C(Nc1ccc(F)cc1)C(c1ccccc1OC(F)(F)F)N1CCN(c2cccc(C(F)(F)F)n2)CC1 (configuration not stated) | – | inconclusive: 7.08 µM [activator, full curve]
45 | COc1ccc(C2CC(c3cccs3)=NN2C(=O)CSc2nc(=O)n3ccc(C)cc3n2)cc1 (configuration not stated) | – | inconclusive: 14.1 µM [activator, partial curve]
46 | O=C(CSc1nc2c(c(=O)[nH]1)CN(Cc1ccc(F)cc1)CC2)Nc1cccc(C(F)(F)F)c1 | inactive: 21.8% | –
47 | O=C(c1ccccc1Cc1ccccc1)N1CCN(S(=O)(=O)c2ccccc2F)CC1 | – | inconclusive: 35.5 µM [activator, single point]
48 | Cc1ccc(CC(=O)N2CCN(S(=O)(=O)c3ccccc3)CC2)cc1C | – | inconclusive: 7.08 µM [activator, full curve, poor fit]
49 | Cc1ccc(NC(=S)N(Cc2cccc(Br)c2)CC2CCC(C(=O)O)CC2)cc1 (configuration not stated) | – | inconclusive: 31.6 µM [activator, single point]
50 | O=C1N[C@@H](c2ccccc2)COC(=O)[C@H](Cc2ccc(F)cc2)C/C=C\C[C@@H]1CC(=O)N(CCO)Cc1ccccc1 | – | active: 22.4 µM
51 | CCOC(=O)N1CCN(C(=O)CSCc2ccc(C)cc2)CC1 | – | inconclusive: 0.316 µM [activator, full curve, poor fit]
52 | O=C(COc1ccccc1)Nc1nc(-c2ccncc2)cs1 | inactive: -0.595% | –
53 | COc1c(CC=C(C)C)cc(C2CC(=O)c3c(O)cc(O)cc3O2)cc1CC=C(C)C (configuration not stated) | – | inconclusive: 28.2 µM [activator, single point]
54 | COC(=O)[C@H]1C[C@@]2(n3ccc4ccccc43)c3ccccc3N[C@H]2N1 | inactive: 8.12% | –
55 | COc1ccc(Nc2nc(N)nc(CSc3nc4ccccc4s3)n2)cc1 | – | inconclusive: 28.2 µM [activator, partial curve, poor fit]
56 | O=S1(=O)c2ccccc2N(Cc2ccccc2Cl)c2ccccc21 | inactive: 1.91% | –
57 | COC(=O)c1ccccc1NC(=O)Oc1ccc(F)cc1 | inconclusive: 52.6% [activator] | –
58 | O=c1oc2c3c4c(cc2c2c1CCC2)OCCN4CCC3 | – | inconclusive: 31.6 µM [activator, single point]
59 | COC(=O)c1ccc(Cn2nc(-c3ccccc3)ccc2=O)cc1 | – | inconclusive: 25.1 µM [activator, partial curve, poor fit]
60 | CCN1C(=O)[C@H]2[C@@H](c3ccc(OC)cc3)N[C@]3(CCCN(Cc4cccn4C)C3=O)[C@H]2C1=O | – | inconclusive: 50.1 µM [activator, single point]
61 | N#C/C(=C\c1ccc(O)c(O)c1)C(=O)Nc1ccccc1 | inactive: -15.6% | –
62 | COC(=O)[C@@]1(Cc2ccc(F)cc2)[C@H]2c3cc(C(=O)N(C)C)n(Cc4ccc(OC)c(OC)c4)c3C[C@H]2CN1C(=O)c1ccccc1 | – | inconclusive: 20 µM [activator, single point]

Source: PubChem BioAssay AID1347120 (National Center for Advancing Translational Sciences (NCATS), 2019)
